Consider 54 variants from the RNAGym collection of RNA variant scans (doi:10.1101/gad.245936.114).

This sample is rich in variants without activity.

The chains are these.
B1: tRNA (parent)
chain: CUCUCGGUAGCCAAGUUGGUUUAAGGCGCAAGACUUUAAUUUAUCACUACGAAAUCUUGAGAUCGGGCGUUCGACUCGCCCCCGGGAGAUUUUUUCCUCGAGCAA

In this series the parent is B1. As to the kind of experiment: nonsense suppression (GFP-seq) (ratio to wild type); higher = more function; SUP4oc tRNA, yeast GFP reporter sort-seq. In a few lines:
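Yeast were grown in raffinose/galactose medium with 80 mg/L adenine, each strain bearing a genome-integrated ochre-suppressor tRNA variant from a ~3% random-mutation library, a galactose-driven GFP ochre reporter, and RFP. After sorting into GFP/RFP bins, every bin was sequenced on an Illumina platform at phred ≥30. The GFPSEQ value, a measure of nonsense suppression, is the weighted bin median GFP/RFP relative to the unmutated parent tRNA, using each variant's estimated cell share per bin as the weight. Only variants with ≥100 reads and ≥30 cells were included.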
For the variant CUCUGGGUAGCCAAGUUGAUUUAAGGCGCAAGACAUUAAUUUAUCACUACGAAAUCUUGAGAUCGGGCGUUCGACUCGCCCCCGGGAUAUUUUUUCCUCGAGCAA, the nonsense suppression was at most 0.026. The value for CUCUCGGUAGCCAAGUUGGUUUAAGGCGCAAGACUUUAAUUUAUCACUACGAAAUCUUGAGAUCGGGCGGUUGACUCGCUCCCGGGAGAUUUUUUCCUCGAGCAA was at most 0.026; that for CUCUCGGUAGCCAAGUUGGUUUAUGGCGCAAGACUUUAAUUUAUCACUACGAAAUCUUGAGCCCGCGCGUUCGACUCGCCCCCGGGAGAUUUUUUCCUCGAGCAA was at most 0.026; that for CCCUCGGUAGCCAAGUUGGUCUAAGGCGCAAGACUUUAAUUUAUCACUACGAAAUCUUGAGCUCGCGCGUUCGACUCGCCCCCGGGAGAUUUUUUCCUCGAGCAA was at most 0.026. CUCUCGGUAGCCAAGAUUGUUUAAGGCGCAAGACUUUAAUUUAUCACUACGAAAUCUUGUGAUCGGGCGUUCGACUCGCCCCCGGGAGAUUUUUUCCUCGAGCAA: the nonsense suppression is at most 0.026. Take CUCUCGGUUGCCAAGUUGGUUUAAGGCGCAAGACUUUAAUUUAUCACUACGAAAUCUUGAGAUCGGGCGUUCGACUCGCCCCCUGGAGAUUUUUUCCUCGAGCAA: the nonsense suppression worked out at 0.0747. The value for CUCUUGGUAGCCAAGUCGGUUUAAGGCGCAAGACUUUAAUUUAUCACUACGAAGUCUUGCGAUCGGGCGUUCGACUCGCCCCCGGGAGAUUUUUUCCUCGAGCAA was at most 0.026; that for CUCUCGGUAGCCAAGUUUGUUUAAGGCGCAAGACUUUAAUUUAUCACUACGAAAUCUUGAGAUCGGGCGUUCGACUCGCCCCCGGCAGAUUUUUUCCUCGAGCAA was at most 0.026; that for CUCUCAGUAGCCAAGUUGGUUUAAGGCGCAAGACUUUAAUUUAUCACUACGAAAUCUUGAGAUCGGGUGUUCCACUCGCCCCCGGGAGAUUUUUUCCUCGAGCAA was at most 0.026. On to CUCUCGGUAGUCAAUUUGGUUUAGGGCGCAAGACUUUAAUUUAUCACUACGAAAUCUUGUGAUCGGGCGUUCGACUCGCCCCCGGGAGAUUUUUUCCUCGAGCAA, for which the nonsense suppression is at most 0.026. With CUCUCGGUAGCCAAGCUGGUUUAAGGCGCAAGACUUUAAUUUAUCACUACGAAAUCUUGAGAUCGUGCGUUCGCCUCGCCCCCGGGAGAUUUUUUCCUCGAGCAA, the nonsense suppression was at most 0.026. Regarding CUCUCGGUAGCCAAGUUCGUUUAAGGCGCAAGACUUUAAUUUAUCACUACGAAAUCUUGAGAUCGGGCGUUCGGCUCGCCCCCGGGAGAUUUUUUCCUCGAGCAA, the nonsense suppression was at most 0.026. The value for CUCUCGGUAGCCAAGUUGGUUUAAGGCGCAAGACUUUAAUUUAUCACUACGAAAUCUUGAGAUCGGGCGUUCUACUCGCCACCGGGAGAUUUUUUCCUCGAGCAA was at most 0.026; that for CUCUCGGGAGCCAAGUUGGUUUAAGGCGCAAGACUUUAAUUUAUCACUACGAAAUCUUGAGAUCGGUCGUUCGACUCGCCCCCGGGAGAUUUUUUCCUCGAGCAA was at most 0.026. In the case of CUCUCGGUAGCCAAGUUGGUUUAAGUCGCACGAUUUUAAUUUAUCACUACGAAAUCUUGAGAUCGGGCGUUCGACUCGCCCCCGGGAGAUUUUUUCCUCGAGCAA, the nonsense suppression is at most 0.026. The value for CUCUCGGUAGCCAAGUUGGUUUAAGGCGCAAGGCGUUAAUUUAUCACUACGAAAUCUUGAGAUCGGGCGUUCGACUCGCCCCCGGGAGAUUUUUUCCUCGAGCAA was at most 0.026; that for CUCUCGGUUGCCAAGUUGGUUUAAGGCGCAAGACUUUAAUUUAUCACUACGAAAUCUUGAGAUCGGGCGUUCGACUUGCCCCCGGGAGAUUUUUUCCUCGAGCAA was 0.0389; that for CUCUCGGUAGCCAAGUUGGUUUAUGGCGCAAGACUUUAAUUUAUCACUACGAAAUCUUGAGAUCGUGCGUUCGACUCGCCCCCGGGAGAUUUUUUCCUCGAGCAA was at most 0.026. For CUCUCGGUAUCCAAGAUGGUUAAUGGCGCAAGACUUUAAUUUAUCACUACGAAAUCUUGAGAUCGGGCGUUUGACUCGCCCCCGGGAGAUUUUUUCCUCGAGCAA, the nonsense suppression is at most 0.026. With AUCUCGGUAGCCAAGUUGGUUUAAGGCGCAAGACUUUAAUUUAUCACUACGAAAUCUUGAGAUCGGGCGUUCGACUCGCCGCCGGGAGAUUUUUUCCUCGAGCAA, the nonsense suppression was at most 0.026. As for CUCACGGUAGCCAAGUUGGUUUAAGGCGCAAAACUUUAAUUUAUCACUACGAAAUCUUGAGAUCGGGCGUUCGACUCGCCCCCAGGAGAUUUUUUCCUCGAGCAA, the figure is at most 0.026; as for CUCUCGAUAGCCAAGUUGGUUUUAGGCGCAAGACUUUAAUUUAUCACUACGAAAUCUUGAGGUCGGGCGUUCGACUCGCCCCCGGGAGAUUUUUUCCUCGAGCAA, at most 0.026. Turning to CUCUCGUUAGCCAACUUGGUUUAAGGCGCAAGACUUUAAUUUAUCACUACGAAAUCUUGAGAUCGGGCGUUCGACGCGCCCCCGGGAGAUUUUUUCCUCGAGCAA, the nonsense suppression is at most 0.026. Turning to CUCGCGGUAGCCAAGUUGGUUUAAGGCGCUCGACUUUAAUUUAUCACUACGAAAUCUUGAGACCCGGCGUUCGACUCGCCCCCGGGAGAUUUUUUCCUCGAGCAA, the nonsense suppression is at most 0.026. Turning to CUCUCGGUAACCAAGUUGGUUUAAGGCGCAAGACUUUAAUUUAUCACUACGAAAUCUAGAGGUCGGGCGAUCGACUCGCCCCCGGGAGAUUUUUUCCUCGAGCAA, the nonsense suppression is at most 0.026.

Take CUCUCGGUAGCCAAGUUGGUUUAGGGCGCAAGACUUUAAUUUAUCACUACGAAAUCUUGAGAUCGCGCGUUCGACCCGCCCCCGGGAAAUUUUUUCCUCGAGCAA: the nonsense suppression was at most 0.026. Consider CUCUCGGUGGCAAGGUUGGUUUAAGGCGCAAGACUUUAAUUUAUCACUACGAAAUCUUGAGAUCGGGCGUUCGACUCGCCCCCGGGAGAUUUUUUCCUCGAGCAA, for which the nonsense suppression was at most 0.026. The value for CUCUAGGUAGCCAAGUUGGUUUAAGGCGCAAGACUUUAAUUUAUCACUACGAAAUCUUGAGAUCGGGCGUUAGACGCGCCCCCGGGAGAUUUUUUCCUCGAGCAA was at most 0.026; that for CUCUCGGUAGCCAUGUUGGUUUCAGGCGCAAGACUUUAAUUUAUCACUACGAAAUCUUGAGAUCGGUCGUUCGACUCGCCCCCGGGAGAUUUUUUCCUCGAGCAA was at most 0.026. In the case of CUCUCGGUAGCCAAGUUGGUUUAAGGCGUAAGACAUUAAUUUAUCACUACGAAAUCCUGAGAUCGGGCGUUCGACUCGCCCCCGGGAGAUUUUUUCCUCGAGCAA, the nonsense suppression is at most 0.026. Turning to CUCUCGGUAAUCAAGUUGGUUUAAGGCGCAAGACUUUAAUUUAUCACUACGAAAUCUUGAGAUUGGGCGUUCGACUCGCCCCCGGGAGAUUUUUUCCUCGAGCAA, the nonsense suppression was at most 0.026.

As to CUCUCGGUAGCCAAGUUGGUUGAAGGCGCAAGACUUUAAUUUAUCACUACGAAAUCUUAAGAUCGGGCGUUCGACUCGCCCCCUGGAGAUUUUUUCCUCGAGCAA, the nonsense suppression was at most 0.026. For CGCUCGGUAGCCAAGUUGGUUUAAGGCGCAAGACUUUAAUUUAUCACUACGAAAACUUGAGAUCGGGCGUUCGACUCGCCCCCGGGAGAUUUUUUCCUCGAGCAA, the nonsense suppression is at most 0.026. As for CUCUUGGUAGCCAAGUUGGUUUGAGGCGCAAGACUUUAAUUUAUCACUACGAAAUCUUGAGAUCGGGCGUUCGACUCGCGCCCGGGACAUUUUUUCCUCGAGCAA, the nonsense suppression is at most 0.026. In the case of CUCUCGGUAGCGAAGUUGGUUUAAGGGGCAAGACUUUAAUUUAUCACUACGAAAUCUUGAGAUCGGGCGUUCGACUCGCCCCCGGGAGAUUUUUUCCUCGAGCAA, the nonsense suppression was at most 0.026. Turning to UUCUCGGUAGCCAAGUUGGUUUAAGGCGCAAGACUUUAAUUUAUCACUACGAAAUAUUGAGAUCGGGCGUUCGACCCGCCCCCGGGAGAUUUUUUCCUCGAGCAA, the nonsense suppression was at most 0.026.

On to CUCUGGGUAGCCAAGUUGGUUUAAGGCGCAAGACUUUAAUUUAUCACUACGAAAUCGUGAGAUCGGGCGUUCGACUCGCCCCCGGGAGAUUUUUUCCUCGAGCAA, for which the nonsense suppression is at most 0.026. Regarding CUCUCGGUAUCCAAGUUGGUUUAAGGCGCAAGACUUUAAUUUAUCACUACGAAAUCUUGAGAUCGGGCGUCCGGCUCGCCCCCGGGAGAUUUUUUCCUCGAGCAA, the nonsense suppression is at most 0.026. As for CCCUCGGUAGCCAAGUUGGUCUAAGGCGCAAGACUUUAAUUUAUCACUACGAAAUCUUGAGAUCGGGCGUUCGACUCGCCCCCGGGAGAUUUUUUCCUCGAGCAA, the figure is 0.203; as for CUCUCGGUAGCCAAGUUGGUUUAAGGCGCGAGACUUUAAUUUAUCACUACGAAAUCUUGAGAUCGGGCGUACGACUCGCCCCCGGGAGAUUUUUUCCUCGAGCAA, 0.05. Turning to CUCUCGGUAGCCAGGCUGGUUUAAGGCGCAAGCCUUUAAUUUAUCACUACGAAAUCUUGAGAUCGGGCGUUCGACUCGCCCCCGGGAAAUUUUUUCCUCGAGCAA, the nonsense suppression is at most 0.026. On to GUCUCGGUUGCCAAGUUGGUUUAAGGCGCAAGACUUUAAUUUAUCACUACGAAAUCUUGAGAUCGGGCGUUCGACUCGCCCCCGGGAGAUUUUUUCCUCGAGCAA, for which the nonsense suppression was at most 0.026. For CUCUCGGCAGCCAAGUUGGUUUAUGCCGCAAGACUUUAAUUUAUCACUACGAAAUCUUCAGAUCGGGCGUUCGACUCGCCCCCGGGAAAUUUUUUCCUCGAGCAA, the nonsense suppression was at most 0.026.

Regarding CUCUCGGUAGCCAAGUUGGUUUAAGGCACAAGACUUUAAUUUAUCACUACGAAAUCUUGAGAUCGCGCGUUCGACUCGCCCCCGGGAGAUUUUUUCCUCGAGCAA, the nonsense suppression is at most 0.026. Consider CUCUCGGUAGCCAAGUUGGUUUAAGGCGCAAGACUUUAAUUUAUCACUACGAAAUCUUGAGAUCGGGCGUUCGACUCACCCCCGUGAGAUUUUUUCCUCGAGCAA, for which the nonsense suppression came to 0.0673. CUCUCGGUAACCAAGGUGGUUUAAGGCGCAAGACUUUAAUUUAUCACUACGAAAUCUUGAAAUCGGGCGUUCGACUCGCCCCCGGGAGAUUUUUUCCUCGAGCAA: the nonsense suppression is at most 0.026.

For CUCUCGGUAGCCAAGUUGGUUUACGGCGCAAGACUUUAAUUUAUCACUACGAAAUCUUGGGAUCGGGCGUUCGACUCGCCCCCGGGAGAUUUUUUCCUCGAGCAA, the nonsense suppression is 0.258. Take CUCUCGGUAGCCAAGUUGGUUCAAGGCGCAAGACUUUAAUUUAUCACUACGAAAUCUUGAGAUCGGGCGUUCGACUCCCCCCCGGGAGAUUUUUUCCUCGAGCAA: the nonsense suppression was 0.195. Take CUCACGGUAGCCAAGUUGGUUUAAGGCGCAAGACUUUAAUUUAUCACUACGAAAUCUUGAGAUCGGGCGUUCGACUCGGCCGCGGGAGAUUUUUUCCUCGAGCAA: the nonsense suppression was at most 0.026. In the case of GUCUCGGUAGCCAAGUUGGUUUAAGGCGCAAGACUUUAAUUUAUCACUACGAAAUCUUGAGAGCGGGCGUUCGACUUGCCCCCGGGAGAUUUUUUCCUCGAGCAA, the nonsense suppression is at most 0.026.

On to CUCUGGGUAGUCAAGUAGGUUUAAGGCGCAAGACUUUAAUUUAUCACUACGAAAUCUUGAGAUCGAGCGUUCGACUCGCCCCCGGGAGAUUUUUUCCUCGAGCAA, for which the nonsense suppression was at most 0.026. Turning to CUCUCGGUAGCCAAGUUGGUUUAAGGGGCAAGACGUUAAUUUAUCACUACGAAAUCUUGAUAUCGGGCGAUCGACUCGCCCCCGGGAGAUUUUUUCCUCGAGCAA, the nonsense suppression was at most 0.026. Consider CUCUCGGUAGCCAAGUUGGUUUAAGGCGCAAGACUUUAAUUUAUCACUACGAAAUCGUGAGGUCGGGCGUUCGACUCGCCCCCGGGAGAUUUUUUCCUCGAGCAA, for which the nonsense suppression is at most 0.026. In the case of CUCUCGGUAGCCAGGUUAGUUUAAGGCGCAAGAGUUUAAUUUAUCACUACGAAAUCUUGAGAUCGGGCGCUGGACUCGCCCCCGGGAGAUUUUUUCCUCGAGCAA, the nonsense suppression is at most 0.026.
